The target in this assay is NFκB transcription factor p65/RelA (human (endogenous in resting CD4+ T cells and PHA-treated T cells from PBMC)), Q04206. Description: co-IP. Particulars: remark: other sources report otherwise.

Results are given in words; binding and its absence hold for the method and conditions named. Binding seen in cells or lysates may run through a third protein.

B1: IκBα, P25963 1-317 (protein)
chain: MFQAAERPQEWAMEGPRDGLKKERLLDDRHDSGLDSMKDEEYEQMVKELQEIRLEPQEVPRGSEPWKQQLTEDGDSFLHLAIIHEEKALTMEVIRQVKGDLAFLNFQNNLQQTPLHLAVITNQPEIAEALLGAGCDPELRDFRGNTPLHLACEQGCLASVGVLTQSCTTPHLHSILKATNYNGHTCLHLASIHGYLGIVELLVSLGADVNAQEPCNGRTALHLAVDLQNPDLVSLLLKCGADVNRVTYQGYSPYQLTWGRPSTRIQQQLGQLTLENLQMLPESEDEESYDTESEFTEFTEDELPYDDCVFGGQRLTL
Regarding B1, the binding result is on record as “no binding”.

These data come from PMC11999137.
